Like-named read-outs stand apart in the source and are kept apart here. No end group written: not given here.
Test system: Male ddY mice
Conditions: for Hyperalgesia (pain-related score): coarse filaments; for Allodynia (pain-related score): fine filaments; for influence on allodynia: pain-related scores compared with the model group: P<0.05; for influence on hyperalgesia: pain-related scores compared with the model group: mouse, in vivo
Text: Male ddY mice (7 weeks old) each weighing 20-25 g were used.
A filament mechanical pain threshold detector; fine filaments (equivalent to 0.0688 g of strength); coarse filaments (equivalent to 1.4798 g of strength); paclitaxel; polypeptides I, I I, III; loxoprofen; normal saline.
Mice were fed in an animal room at the temperature of (22±1)° C. and the relative humidity of 55%±10% for 1 week and then used for tests. Thirty-six mice were divided into model group (only paclitaxel was administrated), blank control group (no paclitaxel was administrated), loxoprofen group, polypeptide I group, polypeptide II group and polypeptide III group. In the loxoprofen group and the polypeptide groups, the corresponding drugs were given respectively 3 days before the administration of paclitaxel, for a total of 7 days. There were 6 mice in each group.
Preparation of a model for paclitaxel-induced pain: Mice were intraperitoneally injected with paclitaxel at a dose of 10 mg/kg for modeling.
Behavioral test of pain in mice: The mice were placed on a metal net divided into three compartments and stood for 15 min, and the reaction of mechanical stimulation on the metatarsal part of hind limbs was measured. Allodynia was evaluated with fine filaments first, and then the degree of hyperalgesia was evaluated with coarse filaments. Stimulus responses was performed 5 times for a total of 10 points. Evaluation criteria (0 point: rapid foot lifting action; 2 points: vigorous foot flick or foot licking. The measurement time was before paclitaxel administration and 24, 48, 72 and 96 h after paclitaxel administration).
The measurement data was expressed by M±SD, and T test was adopted for the differences between groups.

[1] = Before administration of paclitaxel

Compound	Hyperalgesia (pain-related score) (24 h after paclitaxel 10 mg/kg)	Allodynia (pain-related score) (24 h after paclitaxel 10 mg/kg)	Hyperalgesia (pain-related score) (48 h after paclitaxel 10 mg/kg)	Allodynia (pain-related score) (48 h after paclitaxel 10 mg/kg)	Hyperalgesia (pain-related score) (72 h after paclitaxel 10 mg/kg)	Allodynia (pain-related score) (72 h after paclitaxel 10 mg/kg)	Hyperalgesia (pain-related score) (96 h after paclitaxel 10 mg/kg)	Allodynia (pain-related score) (96 h after paclitaxel 10 mg/kg)	Hyperalgesia (pain-related score) [1]	Allodynia (pain-related score) [1]	influence on allodynia: pain-related scores compared with the model group	influence on hyperalgesia: pain-related scores compared with the model group
Gly-Ser-Cys-Ser-Thr-Pro-Pro-d{Cys}-Val-Leu-Tyr-Ser [Polypeptide I]	5.1 ± 0.4	1.4 ± 0.2	3.6 ± 0.3	0.9 ± 0.3	2.3 ± 0.2	0.6 ± 0.2	2.3 ± 0.2	0.6 ± 0.2	2.2 ± 0.6	0.5 ± 0.1	significantly lower than those of the model group	no significant difference
CC(C(=O)O)c1ccc(CC2CCCC2=O)cc1 (stereo not shown) [Loxoprofen, loxoprofen, reference compound]												no significant difference
KCSTPPDAVLYC (cysteine pairing not given here) [Polypeptide III]	5.3 ± 0.1	1.5 ± 0.4	3.7 ± 0.4	1.1 ± 0.1	2.3 ± 0.2	0.6 ± 0.4	2.3 ± 0.5	0.6 ± 0.3	2.3 ± 0.8	0.6 ± 0.2	significantly lower than those of the model group	no significant difference
GSCSTPPSAVLYC (cysteine pairing not given here) [Polypeptide II]	5.2 ± 0.3	1.5 ± 0.6	3.7 ± 0.4	1.0 ± 0.4	2.3 ± 0.4	0.6 ± 0.4	2.3 ± 0.6	0.6 ± 0.4	2.4 ± 0.2	0.6 ± 0.2	significantly lower than those of the model group	no significant difference

Source: patent publication US11192921B2 (priority 2017, dated 2021)
